Experimental data: PubChem BioAssay AID624417 (National Center for Advancing Translational Sciences (NCATS), 2012)
About 6,400 (1.6%) of roughly 410,000 compounds were called active. Inconclusive means that the source gave no clear call. Such entries were picked first, then a sample of the others. Calls come from the whole dose curve; as a rule, active = well fitted inhibition curve with a large enough effect; inconclusive = small, poorly fitted or top-dose-only effect; inactive = no such curve, though single readings can be large or run the other way. No potency is given beside an inconclusive call; the fits are too rough.

target: Glucagon-like peptide 1 receptor (Homo sapiens) (UniProt P43220); test: qHTS of GLP-1 Receptor Inverse Agonists (Inhibition Mode); details: HEK293 GLP-1R CRE-luciferase, luminescence, 24 h, GLP-1R form is constitutively active; series mostly up to 38.3 µM; note: nearly all actives have a fitted effect of over 55% in size
Chain of UniProt P43220 (P43220 whole entry, looked up): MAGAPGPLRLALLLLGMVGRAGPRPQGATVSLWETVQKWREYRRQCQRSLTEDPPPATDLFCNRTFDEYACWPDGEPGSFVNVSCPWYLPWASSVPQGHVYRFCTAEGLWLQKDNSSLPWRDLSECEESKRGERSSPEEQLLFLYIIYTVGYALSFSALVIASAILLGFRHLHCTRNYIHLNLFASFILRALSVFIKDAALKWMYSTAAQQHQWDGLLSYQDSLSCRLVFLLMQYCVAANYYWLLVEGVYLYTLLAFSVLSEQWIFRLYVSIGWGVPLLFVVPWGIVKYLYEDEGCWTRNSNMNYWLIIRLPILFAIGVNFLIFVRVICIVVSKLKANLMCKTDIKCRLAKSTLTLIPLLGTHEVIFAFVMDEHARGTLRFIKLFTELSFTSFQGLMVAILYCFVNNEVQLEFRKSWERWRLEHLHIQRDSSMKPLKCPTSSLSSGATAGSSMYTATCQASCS
Outline: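 Assay principle: reduced luminescence from a cAMP-responsive reporter in HEK293 cells co-expressing a constitutively active GLP-1R. Conditions: 24 hr compound incubation, 37 deg C, 5% CO2.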
Potency is the fitted concentration of half-maximal effect; tags give direction and shape of the fitted curve.

Row | Structure (SMILES) | Potency
1 | O=C(c1ccc(Cl)c(S(=O)(=O)N2CCCCCC2)c1)N1CCN(c2ccc(O)cc2)CC1 | inconclusive [inhibitor, partial curve, poor fit]
2 | Cc1cccc(NC(=O)CSc2nc3ccc(NC(=O)COc4ccccc4C)cc3s2)c1 | inconclusive [inhibitor, single point]
3 | COc1cc(-c2nc3ccccn3c2NCc2ccccc2)ccc1SC1CCCCC1 | inconclusive [inhibitor, full curve, poor fit]
4 | Cc1ccc2ccc(C(Nc3cccc(C(F)(F)F)c3)c3cccnc3)c(O)c2n1 (stereo unspecified) | inactive
5 | Cc1ccc(-c2noc(=O)n2CC(=O)c2ccc(Cl)cc2)cc1 | inconclusive [inhibitor, single point]
6 | CCOc1ccccc1C1NC(=O)NC(C)=C1C(=O)OC1CCCC1C (stereo unspecified) | inconclusive [inhibitor, partial curve, poor fit]
7 | Cc1ccn2c(NC3CCCCC3)c(C)nc2c1 | inactive
8 | Nc1ccc(-c2nc(-c3ccccc3)nc3ccccc23)cc1 | inconclusive [inhibitor, single point]
9 | COc1cc2c(c(OC)c1OC)-c1c(cc3c(c1OC)OCO3)[C@@H](OC(C)=O)[C@H](C)[C@H](C)C2 | inconclusive [inhibitor, single point]
10 | CC1(C(=O)NCc2ccccc2)Cc2c(-c3cccc(C(N)=O)c3)ccnc2O1 (stereo unspecified) | inconclusive [inhibitor, full curve, poor fit]
11 | COc1ccccc1Cn1c(C)nc2ccccc21 | inactive
12 | NC(=O)c1sc(-c2ccsc2)cc1NS(=O)(=O)c1ccc(C(F)(F)F)cc1 | inconclusive [inhibitor, partial curve, poor fit]
13 | CCOC(=O)C1CCN(Cc2ccc(Cl)c(Cl)c2)CC1 | inactive
14 | NC(=O)c1nsc(C(=O)N(c2ccccc2F)C(C(=O)NCc2ccc(F)cc2)c2ccc(O)cc2)c1N (stereo unspecified) | inconclusive [inhibitor, partial curve]
15 | O=S(=O)(Nc1nc(-c2ccccc2)cs1)c1cc(Cl)ccc1Cl | inconclusive [inhibitor, single point]
16 | COc1ccc(CN2CCC(C(=O)c3ccc(Cl)cc3)CC2)cc1 | inconclusive [inhibitor, single point]
17 | O=C(CSc1nnc(-c2cccs2)n1Cc1ccco1)c1ccc2c(c1)OCO2 | inconclusive [inhibitor, full curve, poor fit]
18 | Clc1cccc(Cc2c(-c3ccccc3)nc3c4ccccc4ccn23)c1 | inconclusive [inhibitor, partial curve]
19 | CCc1ccc(C(=O)CN2CCSC2=N)cc1 | inconclusive [inhibitor, single point]
20 | COc1ccccc1-n1cc(-c2ccccc2)[nH]c1=S | inconclusive [inhibitor, full curve, poor fit]
21 | COc1ccc(C)cc1CN(C)c1ccc(S(=O)(=O)N2CCN(C)CC2)cn1 | inconclusive [inhibitor, single point]

Row | Structure (SMILES) | Potency
22 | COc1ccccc1-c1cnc(C(O)c2ccc(Cl)cc2)[nH]1 (stereo unspecified) | inconclusive [inhibitor, single point]
23 | CNC(=O)c1ccsc1NC(=O)c1ccc(S(=O)(=O)N2CCCc3ccccc32)cc1 | inconclusive [inhibitor, partial curve, poor fit]
24 | COc1cc2c(cc1OC)C(C)N(C(=O)c1cc(Cl)nc(Cl)c1)CC2 (stereo unspecified) | inconclusive [inhibitor, full curve]
25 | COc1ccccc1CNC(=O)CCc1cn(C)c2ccccc12 | inconclusive [inhibitor, partial curve, poor fit]
26 | COc1ccc(OC2CCN(S(=O)(=O)c3ccc(C(C)=O)cc3)CC2)cc1 | inconclusive [inhibitor, partial curve, poor fit]
27 | CS(=O)(=O)N(Cc1ccccc1)c1ccc(C(=O)Nc2cccc(Cl)c2)cc1 | inconclusive [inhibitor, partial curve, poor fit]
28 | COc1ccc(NC(=O)c2c(NC(=O)C(F)(F)F)sc3c2CCCCC3)cc1 | inconclusive [inhibitor, single point]
29 | COc1ccc(Cn2ccc3nc(C)c(C(=O)N4CCN(c5cccc(OC)c5)CC4)cc3c2=O)cc1 | inactive
30 | CCCCC1CCC(C(=O)N2CC(=O)Nc3ccc(C)cc3C2c2ccc(F)cc2)CC1 (stereo unspecified) | inconclusive [inhibitor, single point]
31 | CCOC(=O)C1C(=O)C=C(c2ccccc2)CC1c1ccccc1 (stereo unspecified) | inconclusive [inhibitor, partial curve, poor fit]
32 | CC1CC(C)CN(C(C(=O)NC2CCCCC2)c2ccnc3ccccc23)C1 (stereo unspecified) | inconclusive [inhibitor, single point]
33 | Cc1cccc(C)c1OCC(=O)Nc1ccccc1N1CCCCC1 | inconclusive [inhibitor, partial curve, poor fit]
34 | O=C(Cc1csc(Nc2nc(=S)[nH]c3ccccc23)n1)NCCCN1CCN(c2cccc(Cl)c2)CC1 | inconclusive [inhibitor, partial curve, poor fit]
35 | Cc1cccc(CN2CCN(C3CN(Cc4ccc(F)cc4)S(=O)(=O)C3)CC2)c1 (stereo unspecified) | inconclusive [inhibitor, full curve, poor fit]
36 | CCOC(=O)c1cc2sc(C)cc2n1C(C)C(=O)OCC (stereo unspecified) | inconclusive [inhibitor, partial curve]
37 | CC(=O)c1cccc(NC(=S)NCCCCc2ccccc2)c1 | inconclusive [inhibitor, single point]
38 | CCc1ccc(NC(=O)CSc2nnc3[nH]c(=O)cc(-c4ccccc4)n23)cc1 | inactive
39 | NC(=O)C(NN=C(c1ccccc1)c1ccccc1)c1ccccc1 (stereo unspecified) | inconclusive [inhibitor, single point]
40 | CCN(C(=O)CCc1nc(-c2ccc(C)cc2)no1)c1cccc(C(F)(F)F)c1 | inconclusive [inhibitor, partial curve]
41 | CN1CCN(c2nc(C#N)cc(-c3ccccc3)n2)CC1 | active: 12.6 µM
42 | COc1ccccc1N1CCN(CCCCOc2ccc(C)cc2C)CC1 | inconclusive [inhibitor, single point]

Row | Structure (SMILES) | Potency
43 | Cc1cc(Br)ccc1NC(=O)CN(C)C(=O)COc1cccc2c1OC(C)(C)C2 | inconclusive [inhibitor, partial curve]
44 | Cc1ccc(S(=O)(=O)N2C[C@@H](C)[C@]3(C2)[C@H](O)[C@H](OC(=O)NCc2ccccc2F)C[C@H]2C(=O)N(c4ccccc4)C(=O)[C@H]23)cc1 | inconclusive [inhibitor, single point]
45 | Cc1oc2ccc(O)c(CN3CCOCC3)c2c1C(=O)Nc1cccc(C(F)(F)F)c1 | inconclusive [inhibitor, single point]
46 | COc1ccc(NC(=O)CSc2ncc(-c3ccc(F)cc3)n2Cc2ccco2)cc1 | inconclusive [inhibitor, partial curve, poor fit]
47 | CCOC(=O)c1c(C)n(C)c2ccc(OCC(O)CN3CCCCCC3)cc12 (stereo unspecified) | inconclusive [inhibitor, partial curve, poor fit]
48 | O=C(Nc1ccccc1Oc1ccccc1)c1ccc(Br)o1 | inconclusive [inhibitor, single point]
49 | COc1ccc2c(c1)c(C(=O)CNc1nc(C)cs1)c(C)n2C | inconclusive [inhibitor, partial curve]
50 | Cc1ccc(C(=O)Cn2c(C(=O)OCCO)cc3ccccc32)cc1 | inconclusive [inhibitor, partial curve, poor fit]
51 | Cc1ccc(Cl)cc1N1CCN(C(=O)CN2C(=O)COc3ccc(S(=O)(=O)N4CCCCCC4)cc32)CC1 | inactive
52 | Cc1ccc(CN2[C@@H](CC3CCCCC3)COCCS2(=O)=O)cc1 | inconclusive [inhibitor, single point]
53 | COc1c(-c2ccccc2)oc2c(ccc3occc32)c1=O | inconclusive [inhibitor, single point]
54 | Cc1c(C)n(Cc2ccccc2)c2ccc(C(=O)N3CCN(c4ccc(F)cc4)CC3)cc12 | inconclusive [inhibitor, single point]
55 | O=[N+]([O-])c1ccc(Cl)cc1NCc1cccnc1 | active: 5.62 µM
56 | Cc1ccc(Cn2c(C)nc3c(c2=O)c2nc4ccccc4nc2n3Cc2ccco2)cc1 | inconclusive [inhibitor, partial curve, poor fit]
57 | CCOC(=O)N1CCN(c2nc(-c3ccccc3)c3cc(C)ccc3n2)CC1 | inactive
58 | Cc1cccc(C)c1NC(=O)C(c1ccccc1OC(F)(F)F)N1CCC(c2ccccc2)CC1 (stereo unspecified) | inconclusive [inhibitor, partial curve, poor fit]
59 | CCOc1ccc(Oc2ccccc2NC(=O)CSCC(=O)Nc2cc(C)on2)cc1 | inconclusive [inhibitor, partial curve, poor fit]
60 | Cc1ccc(C)c(NC(=O)Cn2nc(C)c3nn(-c4ccc(Cl)cc4)c(C)c3c2=O)c1 | inactive
61 | Cc1ccc(N(Cc2cccs2)C(=O)C(C)Oc2ccc(Cl)c(C)c2)cc1 (stereo unspecified) | inconclusive [inhibitor, full curve, poor fit]
